Drawing on the supplement of paper PMC4723716, this text covers viability index for 87 molecules.

Structures are written as SMILES. Over roughly 3,600 compounds, “viability index relative to DMSO control” has its median near 0.81; the lowest 2% begin near 0.13. The list shows a part of the results.
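Also: 384-well serum-free SaLSSA: MitoTracker Red CMXRos staining with saponin lysis, high-content imaging, treated-well particle count divided by plate-mean count of DMSO wells.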

This test relates to Plasmodium falciparum NF54 stage V gametocytes. The experiment in a line: viability index relative to DMSO control (fraction); higher = less gametocyte killing. To be noted: 1.25 µM, incubation time: 72 h.
Turning to `CCc1[nH]nc2c1C(Cc1ccccc1)C(C#N)=C(N)O2` (configuration not stated), the viability index amounted to 0.951. In the case of `CCN(CC)CCCC(C)Nc1cc(C=Cc2ccc([N+](=O)[O-])cc2)nc2cc(OC)ccc12` (configuration not stated) it was 0.747; in that of `CCCCC(=O)NC(c1cccc([N+](=O)[O-])c1)c1ccc2cccnc2c1O` (configuration not stated), 0.56; in that of `c1ccc(Nc2nc(-c3ccccn3)cs2)nc1`, 0.0653. The molecule `Cc1ccc2c(c1)C(C)(c1ccc(Cl)cc1)CC(C)(C)N2C(=O)COc1ccc2ccccc2c1` (configuration not stated) displayed a viability index of 0.826.

In turn, `C=CCc1cc(C=c2sc3n(c2=O)C(c2ccc(Cl)cc2)C(C(=O)OCC)=C(C)N=3)cc(OC)c1O` (configuration not stated) displayed a viability index of 0.721. Then `Cc1nc2ccc(NC(=O)C3CC3)cc2c(=O)n1Cc1ccc(Cl)cc1`, with 1.05; and `CC(=O)N(C1=C(N2CCCC2)C(=O)c2ccccc2C1=O)c1ccccc1C`, with 0.78. Then `COc1cc(C=C(C#N)c2nc3ccccc3[nH]2)ccc1OCc1ccccc1Cl`, with 0.678; and `O=C1C2C(C(=O)N1Cc1ccccc1)C1(c3ccccc3)C(=O)C2(c2ccccc2)C(c2ccccc2)=C1c1ccccc1` (configuration not stated), with 0.792; and `COc1cc(/C=C2\SC(c3ccc(C)cc3)=NC2=O)cc(OC)c1OC`, with 0.811. Turning to `O=C(CN1CCCC1)Nc1nc(-c2ccc3c(c2)CCN3S(=O)(=O)c2ccccc2)cs1`, the viability index was 0.971. `Clc1ccc(-c2cn3c([n+]2-c2ccccc2)CCC3)cc1`: the viability index stood at 0.687. In the case of `O=C(Nc1ccc(-c2nc3ccc(-c4nc5ccc(NC(=O)c6cccc7ccccc67)cc5[nH]4)cc3[nH]2)cc1)c1cccc2ccccc12` it was 0.171; in that of `COc1cc(C(=O)Nc2nnc(-c3ccccc3)o2)cc(OC)c1OC`, 0.81; in that of `Cc1ccc2c(c1)-c1c(ssc1=S)C(C)(C)N2C(=O)c1ccco1`, 0.703. As to `CCOC(=O)Cn1cnc2c(nnn2Cc2ccc(F)cc2)c1=O`, the viability index turned out to be 0.581. Turning to `COc1ccc(C=CC(=O)Nc2ccncc2)cc1OC`, the viability index is 0.928.

Turning to `O=C1NC(=S)NC1=Cc1ccc(C(F)(F)F)cc1`, the viability index turned out to be 1.01. As to `Cc1ccc(C2CC(=O)N3CN(c4ccc(Br)cc4)CSC3=C2C#N)o1` (configuration not stated), the viability index is 0.843.

`Cc1cc(Cl)ccc1NC(=O)c1ccccc1[N+](=O)[O-]` came in with a viability index of 1.12. Molecule `COc1ccc(NC(=O)CCCCCn2c(SCC(=O)c3ccccc3)nc3ccsc3c2=O)cc1` returned a viability index of 0.784. `O=C1C(Nc2ccc(Cl)cc2)=C(N2CCCCC2)C(=O)c2ccccc21` came in with a viability index of 0.177. In the case of `COc1cccc(OCC(=O)NN=C(C)CC(=O)NCc2ccco2)c1` it was 0.793; in that of `COc1ccc(-c2cnc3ccc(NCc4cccc(Cl)c4)nn23)cn1`, 0.744; in that of `CCCCCc1nnc(NC(=O)c2ccc(-c3ccc(OC)cc3)cc2)s1`, 0.873. In the case of `COC(=O)c1c(-c2c(F)cccc2Cl)noc1C=CNc1ccccc1` it was 0.877; in that of `COc1ccc(C2C3=C(CC(C)(C)CC3=O)Nc3n[nH]c(C)c32)cc1` (configuration not stated), 1.07; in that of `CCOC(=O)C1=C(C)NC2=C(C(=O)CC(c3ccc(OC)cc3)C2)C1c1ccsc1` (configuration not stated), 0.882. In turn, `O=C(O)c1cccc(N2N=C(c3ccccc3)CC2=O)c1` returned a viability index of 0.822. As to `c1ccc(Cc2cc[n+](Cc3ccccc3)cc2)cc1`, the viability index amounted to 0.667. As for `Fc1ccc(-c2cn3c([n+]2-c2ccccc2)SCC3)cc1`, the viability index worked out at 0.786. Regarding `CCOCCCN(C(=O)C(F)(F)F)C(C(=O)NC1CCCCC1)c1ccncc1` (configuration not stated), the viability index worked out at 0.83.

Take `O=[N+]([O-])c1cc(Br)c(Nc2ccccc2)c([N+](=O)[O-])c1`: the viability index is 0.0522. Consider `Cc1occc1C(=O)NN=CC(Br)=Cc1ccccc1`, for which the viability index came to 0.826. In the case of `CCN(CC)CCCNc1nc2cc(OC)c(OC)cc2c2nc(-c3ccccc3)nn12` it was 0.727; in that of `CCOC(=O)c1ccc2nc(C)cc(Nc3ccc(N4CCCCC4)cc3)c2c1`, 0.749; in that of `CCC(SC1=Nc2ccccc2C2=NC(C(C)C)C(=O)N12)C(=O)Nc1cccc(C)c1` (configuration not stated), 0.98.

In turn, `COc1ccc(C2Nc3ccc4ccccc4c3C3=C2C(=O)CC(C)(C)C3)cc1Br` (configuration not stated) gave a viability index of 0.795. In the case of `O=C1C(=Nc2cccc(C(F)(F)F)c2)c2ccccc2N1CN1CCc2ccccc2C1` it was 0.916; in that of `COc1ccccc1NC(=S)N1CCN(c2ccc([N+](=O)[O-])cc2)CC1`, 0.318. In the case of `CCOC(=O)c1cnc2ccc(OC)cc2c1O` it was 1.05; in that of `c1ccc2cc3c(Nc4ccc(N5CCOCC5)cc4)ccnc3cc2c1`, 0.79. Then `CC(OC(=O)c1ccccc1N1C(=O)C2C3C=CC(C4CC34)C2C1=O)C(=O)c1ccccc1` (configuration not stated), with 1.02; and `Cc1cccc(N2CCN(c3nc4ccccc4c4nnc(C)n34)CC2)c1C`, with 1.22; and `CCNC(=O)[C@@H]1C[C@@H](NC2C3CC4CC(C3)CC2C4)CN1Cc1cccc(OC)c1OC` (some centres not stated), with 0.962. The molecule `Cc1ccc(C)c2[nH]c(=O)c(CN(Cc3ccccc3)C(=S)NCCCN(C)C)cc12` yielded a viability index of 0.964. `CN(C)c1ccc(C=C2SC(=Nc3ccccc3)NC2=O)cc1`: the viability index is 0.415.

Molecule `COc1ccccc1CNC(=O)CCC1N=C2c3ccccc3N=C(SCC(=O)Nc3ccc(F)cc3)N2C1=O` (configuration not stated) had a viability index of 1.09. In the case of `COc1cc(C(=O)N2CCN(Cc3cccc(Br)c3)CC2)cc(OC)c1OC` it was 0.918; in that of `COc1ccc(N2CCN(C(=O)C3=C(C)C(=O)OC34CCCCC4)CC2)cc1`, 0.884. Then `CCN1CCN(Cc2ccc(N(CC)CC)cc2)CC1`, with 1.12; and `COc1ccc(C2CC(=O)C3=C(C2)NC(C)=C(C(=O)OC(C)C)C3c2ccccc2OC)cc1OC` (configuration not stated), with 0.625. In the case of `CCCCNC1=CC(=O)C(=O)c2ccccc21` it was 0.402. The molecule `O=C(CSc1nccn1C1CCCC1)Nc1cc(C(F)(F)F)ccc1Cl` displayed a viability index of 0.791. `COc1cccc(-c2ccc(O)c(CN(C)CCc3ccc(OC)c(OC)c3)c2)n1` registered a viability index of 0.933.

The molecule `CCN1C(=Cc2cccc[n+]2C)Sc2ccc(OC)cc21` came in with a viability index of 0.961. In turn, `COc1ccc(C=Cc2cc[n+](C)cc2)cc1OC` yielded a viability index of 0.957. Take `CCCCCOC(=O)C1=C(C)Nc2ncnn2C1c1cccc([N+](=O)[O-])c1` (configuration not stated): the viability index stood at 0.783.

Take `COc1ccccc1N(CC(=O)N1CCCCC1)S(=O)(=O)c1ccccc1`: the viability index was determined as 1.08. Consider `CCOc1ccc(CCN2C(=S)N(c3cccc(C(F)(F)F)c3)C(=O)C2CC(=O)Nc2ccc(C(=O)OC)cc2)cc1OCC` (configuration not stated), for which the viability index amounted to 0.582.

On to `Fc1ccccc1Nc1nc(NCc2ccccc2)c2ccccc2n1`, for which the viability index stood at 1.04. Then `O=C1NN(c2ccccc2)C(=O)C1=C1C(=O)N(Cc2cccc3ccccc23)c2ccccc21`, with 0.811; and `COC(=O)C1=C(C(=O)OC)SC(=C2C(=S)C(C)(C)Nc3cc(C)ccc32)S1`, with 1.15. In the case of `COC(=O)c1c(-c2c(Cl)cccc2Cl)noc1C=CNc1ccccc1` it was 0.834; in that of `Cc1cc(C)cc(NC2=C(c3ccccc3)C(=O)c3ccccc32)c1`, 0.807; in that of `COc1cc(C2C(C(=O)OCCc3ccccc3)=C(C)NC3=C2C(=O)CC(c2ccc(Cl)cc2)C3)ccc1OCc1ccccc1` (configuration not stated), 0.849. The molecule `COc1ccc(NC(=O)C2c3ccccc3C(=O)N(C3CCCC3)C2c2cccs2)cc1Cl` (configuration not stated) had a viability index of 0.313. Then `Cc1c(C(=O)N2CCN(c3cccc(Cl)c3)CC2)sc2ncnc(N(C)c3ccccc3)c12`, with 0.734.

With `COc1cccc(-c2cc(C(=O)Nc3cc(Cl)ccc3O)on2)c1`, the viability index was determined as 0.936. As to `CCOc1ccc(-c2nc(NC(=O)Cc3cccc(OC)c3)sc2C)cc1`, the viability index stood at 0.896. On to `Cc1oc2c(c1C(=O)NCc1cccnc1)C(=O)c1ccccc1C2=O`, for which the viability index turned out to be 0.231. In the case of `O=C(Nc1ccc(Oc2cccnc2)cc1)C1CCN(Cc2cc3ccccc3o2)CC1` it was 0.894; in that of `COc1ccc(OC)c(-c2ccc(O)c(CN(C)CC(O)c3ccccc3)c2)c1` (configuration not stated), 0.538. In turn, `O=C(NN=Cc1c(O)ccc2ccccc12)c1cccnc1` showed a viability index of 0.866. `COc1ccc(C(C)=O)cc1N1C(=O)C2C(C1=O)C1(c3ccccc3)C(=O)C2(c2ccccc2)C(c2ccc(C)cc2)=C1c1ccc(C)cc1` (configuration not stated) yielded a viability index of 1.07. `COc1ccc(CN(Cc2cc3cccc(C)c3nc2N2CCCC(O)C2)C(=O)c2ccc(OC)c(OC)c2)cc1` (configuration not stated) registered a viability index of 1.12. In the case of `S=C(NN=CC=NNC(=S)Nc1ccccc1)Nc1ccccc1`, the viability index was 0.104. In the case of `CSc1cccc([C@@H]2C[C@H]3CN(c4ccccc4)C(=O)[C@]34CCCN24)c1` it was 0.75; in that of `COCCOC(=O)C1=C(C)NC2=C(C(=O)CC(c3ccc(OC)c(OC)c3)C2)C1c1ccc(Cl)cc1Cl` (configuration not stated), 0.672; in that of `Cc1ccc(OCC(=O)Nc2cccc(C(=O)O)c2)c(Br)c1`, 1.18.

For `Cc1ccc(-c2nnc(SCCCC(=O)NC(Cc3ccccc3)c3ccccc3)n2-c2cccc(Cl)c2)cc1` (configuration not stated), the viability index was found to be 0.488.

Molecule `CN1CCC(N2CCC(Oc3cccc(C(=O)NCCC4=CCCCC4)c3)CC2)CC1` had a viability index of 1.02. Then `Brc1ccc(Nc2nc(NCC3CCCO3)c3ccccc3n2)cc1` (configuration not stated), with 0.706; and `COc1ccc2nc(C)cc(Nc3ccc(Oc4ccc5ccccc5c4)c(Cl)c3)c2c1`, with 0.576; and `O=C(Nc1ccc(Cl)cc1)N1CCN(c2ccc3nncn3n2)CC1`, with 0.669. Consider `CCCCCCCc1ccc(-c2nnc(-c3ccc([N+](=O)[O-])cc3)o2)cc1`, for which the viability index is 1.09.
